Data: paper PMC5520852
Results are given in words; binding and its absence hold for the method and conditions named. In cells and extracts the contact can be indirect. Some binding calls cover weakened binding; strength is not graded here.

By UniProt entry, the sequences of proteins in these tests, tags left out.
UniProt Q99JR8: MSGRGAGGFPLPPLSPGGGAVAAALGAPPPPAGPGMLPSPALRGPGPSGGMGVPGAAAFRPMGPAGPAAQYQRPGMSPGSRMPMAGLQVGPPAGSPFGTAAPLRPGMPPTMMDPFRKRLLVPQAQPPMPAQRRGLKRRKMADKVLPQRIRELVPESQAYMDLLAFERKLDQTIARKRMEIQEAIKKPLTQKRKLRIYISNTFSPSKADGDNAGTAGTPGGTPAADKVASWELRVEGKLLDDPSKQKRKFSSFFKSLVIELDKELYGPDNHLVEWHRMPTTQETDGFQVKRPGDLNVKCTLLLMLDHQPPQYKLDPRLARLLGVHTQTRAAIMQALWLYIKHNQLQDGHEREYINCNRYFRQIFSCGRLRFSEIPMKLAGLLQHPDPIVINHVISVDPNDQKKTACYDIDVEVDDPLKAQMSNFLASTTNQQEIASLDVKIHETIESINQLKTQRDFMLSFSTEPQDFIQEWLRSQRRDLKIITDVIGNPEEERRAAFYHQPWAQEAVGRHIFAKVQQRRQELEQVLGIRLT
UniProt Q3TKT4: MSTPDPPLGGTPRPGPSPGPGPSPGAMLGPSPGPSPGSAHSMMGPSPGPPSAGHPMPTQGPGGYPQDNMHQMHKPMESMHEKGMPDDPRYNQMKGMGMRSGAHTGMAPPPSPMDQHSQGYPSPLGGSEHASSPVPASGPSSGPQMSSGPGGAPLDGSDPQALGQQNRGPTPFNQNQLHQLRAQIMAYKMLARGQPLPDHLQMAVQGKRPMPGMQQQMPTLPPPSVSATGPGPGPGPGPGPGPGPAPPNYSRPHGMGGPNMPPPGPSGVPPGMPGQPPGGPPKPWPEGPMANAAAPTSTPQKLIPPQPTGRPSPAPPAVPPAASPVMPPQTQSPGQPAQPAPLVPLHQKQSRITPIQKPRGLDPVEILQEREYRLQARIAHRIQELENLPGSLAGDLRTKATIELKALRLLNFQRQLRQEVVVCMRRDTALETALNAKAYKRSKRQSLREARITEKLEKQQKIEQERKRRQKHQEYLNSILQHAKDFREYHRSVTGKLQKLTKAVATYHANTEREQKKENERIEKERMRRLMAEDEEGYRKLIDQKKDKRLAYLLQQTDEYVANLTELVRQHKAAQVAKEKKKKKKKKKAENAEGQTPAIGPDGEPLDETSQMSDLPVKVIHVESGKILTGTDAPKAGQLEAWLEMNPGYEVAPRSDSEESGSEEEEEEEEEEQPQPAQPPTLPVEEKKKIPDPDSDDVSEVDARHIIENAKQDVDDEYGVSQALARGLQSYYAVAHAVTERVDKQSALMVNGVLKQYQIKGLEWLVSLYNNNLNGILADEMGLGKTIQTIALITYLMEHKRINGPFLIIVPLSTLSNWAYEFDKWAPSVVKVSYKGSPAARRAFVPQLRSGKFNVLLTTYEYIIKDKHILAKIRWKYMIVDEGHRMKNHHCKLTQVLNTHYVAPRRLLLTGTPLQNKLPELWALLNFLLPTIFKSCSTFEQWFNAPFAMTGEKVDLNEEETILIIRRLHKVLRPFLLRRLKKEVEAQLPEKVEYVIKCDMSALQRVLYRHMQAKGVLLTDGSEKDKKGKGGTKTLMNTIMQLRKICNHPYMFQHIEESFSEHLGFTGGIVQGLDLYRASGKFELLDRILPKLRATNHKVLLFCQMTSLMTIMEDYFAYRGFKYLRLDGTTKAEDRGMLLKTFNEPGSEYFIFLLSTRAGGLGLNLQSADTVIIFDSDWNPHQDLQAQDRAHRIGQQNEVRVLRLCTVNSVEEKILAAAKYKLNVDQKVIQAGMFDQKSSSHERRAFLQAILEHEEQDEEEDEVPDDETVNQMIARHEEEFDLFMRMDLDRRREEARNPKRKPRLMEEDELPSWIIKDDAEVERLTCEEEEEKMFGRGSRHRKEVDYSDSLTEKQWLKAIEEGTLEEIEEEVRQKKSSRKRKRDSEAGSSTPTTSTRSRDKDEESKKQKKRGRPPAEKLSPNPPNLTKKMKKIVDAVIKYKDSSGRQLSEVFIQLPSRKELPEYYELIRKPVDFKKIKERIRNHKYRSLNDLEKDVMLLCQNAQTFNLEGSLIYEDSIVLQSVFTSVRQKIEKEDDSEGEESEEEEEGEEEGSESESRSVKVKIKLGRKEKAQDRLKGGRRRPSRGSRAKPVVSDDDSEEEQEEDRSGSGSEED
UniProt Q6P9Z1: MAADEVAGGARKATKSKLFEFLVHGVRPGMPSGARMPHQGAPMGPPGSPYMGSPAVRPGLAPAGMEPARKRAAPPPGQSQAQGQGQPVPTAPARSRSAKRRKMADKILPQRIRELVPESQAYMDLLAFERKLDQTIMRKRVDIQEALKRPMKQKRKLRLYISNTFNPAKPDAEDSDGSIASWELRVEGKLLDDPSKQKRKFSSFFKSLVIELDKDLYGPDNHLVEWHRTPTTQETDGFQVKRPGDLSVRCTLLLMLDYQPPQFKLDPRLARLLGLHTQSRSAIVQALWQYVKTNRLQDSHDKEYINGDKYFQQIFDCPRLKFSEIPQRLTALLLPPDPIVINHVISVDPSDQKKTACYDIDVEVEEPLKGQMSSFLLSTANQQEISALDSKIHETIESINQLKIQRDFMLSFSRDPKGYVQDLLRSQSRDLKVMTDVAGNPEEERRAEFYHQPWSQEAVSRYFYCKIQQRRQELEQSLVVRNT
UniProt Q61466: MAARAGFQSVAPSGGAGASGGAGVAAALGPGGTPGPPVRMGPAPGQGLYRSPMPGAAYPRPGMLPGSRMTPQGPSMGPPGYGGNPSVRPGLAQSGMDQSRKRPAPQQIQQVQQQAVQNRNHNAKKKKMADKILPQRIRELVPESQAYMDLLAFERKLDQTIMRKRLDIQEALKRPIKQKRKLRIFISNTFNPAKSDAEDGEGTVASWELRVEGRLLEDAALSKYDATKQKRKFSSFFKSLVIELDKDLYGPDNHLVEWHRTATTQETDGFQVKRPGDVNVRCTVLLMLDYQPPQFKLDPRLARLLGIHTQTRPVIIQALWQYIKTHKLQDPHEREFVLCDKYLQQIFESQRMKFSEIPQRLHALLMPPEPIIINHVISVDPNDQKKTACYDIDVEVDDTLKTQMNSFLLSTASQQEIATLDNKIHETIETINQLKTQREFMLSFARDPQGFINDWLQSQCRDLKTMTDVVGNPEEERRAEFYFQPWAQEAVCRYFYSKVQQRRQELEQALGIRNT

Legend:
[1] = target: HA-tagged Baf60b (full length) (UniProt Q99JR8); test: co-IP; nuclear lysates of TTFs transduced with HA-tagged Baf60b or a mutant, with or without 3TF; immunoprecipitated with an HA antibody or control IgG at 4 °C overnight, Protein G Dynabeads; lysis buffer 50 mM Tris-HCl pH 7.4, 150 mM NaCl, 1 mM EDTA, 1% Triton X-100, 0.1% NP40; immunoblot
[2] = target: Brg1 (mouse (endogenous in TTFs)) (UniProt Q3TKT4); test: co-IP; Brg1-bound Baf60a and Baf60c in control and Baf60b-deficient cells (Supplementary Figure S13A); the precipitating antibody is not given

Baf60c (from UniProt Q6P9Z1 1-483) was tested, and the binding [1] was “no binding” and the binding [2] was “binds”.

With Brg1 (from UniProt Q3TKT4 1-1613) the binding [1] was “binds”.

For Baf60a (from UniProt Q61466 1-515), the binding [1] was “no binding” and the binding [2] was “binds”.
